The results in this text go back to a collection of fitness landscapes (doi:10.1126/science.1257360).

Some of the results follow. A value given as a limit tells only on which side of the number the result lay.

The labels stand for the following.
B1: PhoQ; a variant is named by its letters at X, in order, P23837 (parent)
chain: MKKLLRLFFPLSLRVRFLLATAAVVLVLSLAYGMVALIGYSVSFDKTTFRLLRGESNLFYTLAKWENNKLHVELPENIDKQSPTMTLIYDENGQLLWAQRDVPWLMKMIQPDWLKSNGFHEIEADVNDTSLLLSGDHSIQQQLQEVREDDDDAEMTHSVAVNVYPATSRMPKLTIVVVDTIPVELKSSYMVWSWFIYVLSANLLLVIPLLWVAAWWSLRPIEALAKEVRELEEHNRELLNPATTRELTSLVRNLNRLLKSERERYDKYRTTLTDLTHSLKTPLXXLQXXLRSLRSEKMSVSDAEPVMLEQISRISQQIGYYLHRASMRGGTLLSRELHPVAPLLDNLTSALNKVYQRKGVNISLDISPEISFVGEQNDFVEVMGNVLDNACKYCLEFVEISARQTDEHLYIVVEDDGPGIPLSKREVIFDRGQRVDTLRPGQGVGLAVAREITEQYEGKIVAGESMLGGARMEVIFGRQHSAPKDE

Variants of B1 are the subject of the assay. As to the kind of experiment: enrichment ratio after two sorts for PhoP signalling (ratio (wild type AVST 3.29)); higher = more functional. As to conditions: with PhoP (E. coli).
For LYVH, the enrichment ratio was not above 0.25.
To QMWH belongs not above 0.25; to WVWA, not above 0.25; to HIRW, not above 0.25.
On to TIKA, for which the enrichment ratio is not above 0.25.
For TPNN, the enrichment ratio was not above 0.25.
In the case of GYHA it was not above 0.25; in that of VYMD, not above 0.25.
To FIGL belongs not above 0.25; to DLWT, not above 0.25.
To PSRA belongs not above 0.25; to KIRI, not above 0.25; to GTGM, 6.32.
With SASA, the enrichment ratio was determined as 4.07.
In the case of WSAT it was not above 0.25.
To QAVS belongs not above 0.25.
On to DLNA, for which the enrichment ratio is not above 0.25.
To LRVF belongs not above 0.25; to RELE, not above 0.25.
As for QCGR, the enrichment ratio is not above 0.25.
In the case of HEGC it was not above 0.25; in that of ILFR, not above 0.25.
In the case of FKFS it was not above 0.25; in that of WCGD, not above 0.25.
In the case of KKEL it was not above 0.25; in that of TRSY, not above 0.25.
Regarding SHQV, the enrichment ratio is not above 0.25.
In the case of YESV it was not above 0.25; in that of ELWK, not above 0.25.
To EPHQ belongs not above 0.25.
In the case of GEAY it was 23.4; in that of CFLF, not above 0.25; in that of LAYD, not above 0.25.
AIWE: the enrichment ratio is not above 0.25.
In the case of ITPG it was not above 0.25; in that of MARG, not above 0.25; in that of MYEY, not above 0.25.
As for WDIC, the enrichment ratio is not above 0.25.
Turning to ASVS, the enrichment ratio was found to be 5.6.
To SVMK belongs 7.82; to KHMY, not above 0.25.
For YMHG, the enrichment ratio was not above 0.25.
In the case of YPWK it was not above 0.25; in that of IYNH, not above 0.25.
In the case of LDTA it was not above 0.25.
In the case of MWRP it was not above 0.25; in that of PRKP, not above 0.25.
YVCA: the enrichment ratio was not above 0.25.
In the case of TWRS it was not above 0.25.
Regarding AWAN, the enrichment ratio was not above 0.25.
To CFSL belongs not above 0.25.
Turning to QQVT, the enrichment ratio was not above 0.25.
In the case of YPFT it was not above 0.25; in that of HTCN, not above 0.25; in that of AIGG, 4.61.
Turning to GWWH, the enrichment ratio is not above 0.25.
In the case of SHTC it was not above 0.25; in that of RLLR, not above 0.25; in that of VEEQ, not above 0.25.
In the case of HLTH it was not above 0.25; in that of PSEM, not above 0.25; in that of VVQG, not above 0.25.
For the variant LPIS, the enrichment ratio was not above 0.25.
To RMAW belongs not above 0.25; to YFEL, not above 0.25.
In the case of MAML it was 25.7; in that of ELSV, not above 0.25.
As for AWRP, the enrichment ratio was found to be 0.367.
In the case of NEWY it was not above 0.25; in that of KYLF, not above 0.25; in that of EMSW, not above 0.25.
As to ADMM, the enrichment ratio was not above 0.25.
On to SGGS, for which the enrichment ratio is 2.67.
To MGCY belongs 29.2.
To SNNG belongs 9.4; to NRPH, not above 0.25.
In the case of TKEM it was not above 0.25.
Consider GHTQ, for which the enrichment ratio was not above 0.25.
To PQGC belongs not above 0.25.
To EGAW belongs not above 0.25; to AFFI, not above 0.25; to QRRS, not above 0.25.
In the case of NWYW it was not above 0.25; in that of RIHL, not above 0.25; in that of RSFE, not above 0.25.
For WMPH, the enrichment ratio was not above 0.25.
In the case of MMVD it was not above 0.25; in that of YYQY, not above 0.25.
To LVHD belongs not above 0.25.
Regarding SPLI, the enrichment ratio is not above 0.25.
To DIEH belongs not above 0.25; to IGWG, not above 0.25; to HFVN, not above 0.25.
To YFTM belongs not above 0.25.
Turning to IPLH, the enrichment ratio was not above 0.25.
In the case of DAIF it was not above 0.25; in that of RLPC, not above 0.25; in that of PLNM, not above 0.25.
To THSW belongs not above 0.25.
To RWRP belongs not above 0.25; to NMYK, not above 0.25.
For GDQH, the enrichment ratio was determined as 4.11.
To TYPS belongs not above 0.25; to GCGV, not above 0.25; to CSAF, not above 0.25.
In the case of IFAF it was not above 0.25; in that of DVQI, not above 0.25.
In the case of IRHA it was not above 0.25.
With YYGG, the enrichment ratio is not above 0.25.
In the case of PLLH it was not above 0.25; in that of VYKL, not above 0.25.
In the case of GAVM it was not above 0.25; in that of GLTD, not above 0.25; in that of GCLH, 1.51.
Turning to YFYD, the enrichment ratio is not above 0.25.
To RSFS belongs not above 0.25.
On to CIGA, for which the enrichment ratio was not above 0.25.
In the case of YFHA it was not above 0.25.
To ARKQ belongs not above 0.25; to RANP, not above 0.25.
As for PNND, the enrichment ratio is not above 0.25.
In the case of DKSK it was not above 0.25; in that of HVGH, not above 0.25.
For IKQH, the enrichment ratio is not above 0.25.
In the case of KIGM it was not above 0.25.
In the case of FVCL it was 2.8.
Turning to QMLL, the enrichment ratio was not above 0.25.
In the case of QDET it was not above 0.25; in that of HPNI, not above 0.25; in that of DLQA, not above 0.25.
To ISTG belongs not above 0.25; to DTGI, not above 0.25.
In the case of QEVL it was not above 0.25; in that of STKF, not above 0.25.
For the variant QTVF, the enrichment ratio was not above 0.25.
Consider MHHI, for which the enrichment ratio is not above 0.25.
In the case of FGPK it was not above 0.25.
For EHRG, the enrichment ratio is not above 0.25.
For the variant HAKT, the enrichment ratio was not above 0.25.
On to YETM, for which the enrichment ratio is not above 0.25.
In the case of WYLR it was not above 0.25.
To HRSE belongs not above 0.25; to YDWR, not above 0.25.
To FPTK belongs not above 0.25; to VWRL, not above 0.25.
Turning to QDAR, the enrichment ratio was not above 0.25.
In the case of QSYM it was 0.977.
In the case of DFHI it was not above 0.25.
To DTRP belongs not above 0.25.
In the case of SSYK, the enrichment ratio was not above 0.25.
In the case of YSVL it was 5.73; in that of FHPS, not above 0.25.
In the case of ETSV it was not above 0.25.
